{
  "source": "paper PMC2827191",
  "about": "(Biochemistry, 2009)",
  "target": "the molecule itself",
  "experiment": "AUC",
  "data": [
    {"protein": "DCC-SSB (G26C mutant of E. coli single-stranded DNA binding protein labeled with IDCC, N-[2-(iodoace (natural protein, diethylaminocoumarin (IDCC adduct) on the cysteine of G26C) not shown", "values": [
      {"measurement": "stoichiometry N", "result": 4}
    ]}
  ]
}
